From the supplement of paper PMC3334620 come the findings set out here.

In all, about 33,000 sequences were measured (“E-score (-0.5 to 0.5)”: median about -0.012, highest 2% from about 0.27 on). The list shows a part of the results.

The assay has as its target T1, Vhr1 (UniProt P40522).
T1 sequence: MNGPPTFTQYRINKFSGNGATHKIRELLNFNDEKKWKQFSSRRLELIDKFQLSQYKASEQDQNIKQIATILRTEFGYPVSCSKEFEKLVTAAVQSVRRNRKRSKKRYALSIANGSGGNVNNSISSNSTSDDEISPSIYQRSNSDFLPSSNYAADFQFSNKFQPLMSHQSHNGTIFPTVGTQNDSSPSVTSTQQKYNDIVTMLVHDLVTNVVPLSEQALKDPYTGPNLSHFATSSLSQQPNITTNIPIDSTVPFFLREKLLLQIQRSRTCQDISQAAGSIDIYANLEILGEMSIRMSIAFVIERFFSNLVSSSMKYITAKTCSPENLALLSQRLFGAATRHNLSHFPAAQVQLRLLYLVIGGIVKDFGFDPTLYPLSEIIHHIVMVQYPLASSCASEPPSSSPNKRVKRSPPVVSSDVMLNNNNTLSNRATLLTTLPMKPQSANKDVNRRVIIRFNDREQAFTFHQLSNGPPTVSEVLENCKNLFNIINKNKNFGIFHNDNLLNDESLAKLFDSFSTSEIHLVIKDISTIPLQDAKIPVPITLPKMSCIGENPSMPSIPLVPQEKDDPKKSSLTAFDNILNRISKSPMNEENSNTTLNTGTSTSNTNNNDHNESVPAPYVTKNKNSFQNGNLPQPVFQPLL
The assay can be described thus: PBM E-score (8-mer binding enrichment) (E-score (-0.5 to 0.5)); higher = stronger / more preferred TF binding; most listed sequences are background and not binding sites. As to conditions: protein concentration: 200 nM; construct: GST-full length. The method in brief: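 Universal all-10-mer Agilent arrays, double-stranded by primer extension on fresh or once-stripped slides, were probed with about 100-200 nM GST-tagged yeast transcription factors made by PURExpress. Fluorescent anti-GST detected bound protein, and masliner normalised the scans. E-scores from the Universal PBM Analysis Suite were given to each ungapped eight-base word pooled with its reverse complement.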
Consider ACCTAACT, for which the “PBM E-score” value stood at 0.029. The value for GAATCCGA was 0.135. As to GATGTGGA, the “PBM E-score” value amounted to 0.107.

As to AGGTGAAC, the “PBM E-score” value came out at 0.00026.

Turning to CTTCGTAC, the “PBM E-score” value is -0.0414. The value for CCTCAACG was -0.37. Then GACCCCCA, with -0.215. The value for ATCATTCC was 0.105. Turning to CTACAAAC, the “PBM E-score” value is 0.00725. With ATCCACTC, the “PBM E-score” value was 0.226. With TCGAGCCA, the “PBM E-score” value was -0.0584. The value for ACCTTTTG was -0.322; that for CTCCAGTC was 0.126.

Regarding AGTGAGGG, the “PBM E-score” value was -0.0525. The value for CGGAAACG was -0.113; that for ACGGCATA was 0.0852; that for AAGGACTC was 0.137. AAACGTAG: the “PBM E-score” value was -0.0369. Then AACAGTTG, with 0.0433. Then ATTAGCGC, with 0.0558; and ACCCGCCT, with 0.0943. Consider TAGGGCCA, for which the “PBM E-score” value was -0.246. The value for AAAAGTTG was -0.228; that for TAGGCTGA was 0.0199.

On to CGCCAATC, for which the “PBM E-score” value was 0.139. Then ACCGTCAG, with -0.0753; and CAAACTCA, with 0.0842. CGCAGGAC: the “PBM E-score” value stood at 0.113.

With CATATATG, the “PBM E-score” value was 0.00539. The value for CGAGGGGC was 0.00685; that for CCCACTCG was 0.0331.

Consider ATTAGTTC, for which the “PBM E-score” value is -0.0612.

Turning to ACCTTTCC, the “PBM E-score” value is -0.242. The value for TAGAGTCA was 0.355; that for ATGCTCCC was -0.097; that for GTTTTCCA was -0.0683. The value for ATCGGACG was -0.114. Then GGTGAAGA, with -0.0479; and ACTAGCGG, with -0.0437. Consider CAAGGAAA, for which the “PBM E-score” value was -0.118. The value for ATACAGCA was 0.0905; that for TACTTGGA was -0.0572. The value for GTGACGGA was 0.0152; that for CAGCCGGG was 0.185. Then TATGTTAA, with -0.188; and GGCCCTGA, with -0.0309. Consider CGCGACTA, for which the “PBM E-score” value came out at 0.391. Then AAAAGACT, with -0.102; and AATGTCAT, with -0.0728.

For GACGAGAC, the “PBM E-score” value is -0.0155. CGCTCTAA: the “PBM E-score” value is -0.0477.

As to CGCTTGAC, the “PBM E-score” value came out at 0.00631. The value for CGTATTAC was 0.186; that for GACCCTAA was -0.109. For the sequence GAGTTTAA, the “PBM E-score” value came out at 0.0259. The value for ATTCAGGG was 0.108. The value for CGCATTGA was 0.0883; that for CGGATGAC was 0.175. Consider CTCTGAAC, for which the “PBM E-score” value is -0.204. Then CCGAACAA, with -0.138; and AAGGTTGA, with -0.0768. For the sequence CTCAGCAG, the “PBM E-score” value stood at 0.168.

Regarding CGTTCACA, the “PBM E-score” value was -0.0335.

With CACCAGGA, the “PBM E-score” value stood at 0.157. In the case of TACGGTGA, the “PBM E-score” value was 0.179. Regarding GCCAGGGC, the “PBM E-score” value was -0.0494. Then CTCTGCCC, with -0.013.

Turning to AAGGACTA, the “PBM E-score” value is -0.0314. The value for AGCGGGCC was -0.125.

Take CGCCCTCC: the “PBM E-score” value is -0.137. As for ACTTCTTC, the “PBM E-score” value was -0.00857. The value for TCAGAAAA was -0.284. Then CCCCTCTA, with -0.106; and CCTGCTGA, with 0.268. Then AAGGTCAC, with -0.0131; and AACTACAG, with -0.041; and GAGCAAGC, with -0.0213. AGGGGGAA: the “PBM E-score” value is -0.143. Then AATCTAGT, with -0.021; and CGCCTCTC, with -0.251. Then GAATGCTC, with -0.037.

As for CAGGCTGA, the “PBM E-score” value amounted to 0.192. Then CCACCAAC, with 0.18; and TAAAGACA, with -0.192. Then ACCGGCGT, with 0.046; and TCGCTACA, with -0.0943.
